# Reference: PubChem BioAssay (NCATS)
# Values joined by “and” are separate entries in the source; they are usually repeats but may differ in a detail not shown here. Equal entries are not always repeated. Inconclusive results, whose numbers are uncertain, are shown with a selection of clear calls. For some of these results: No potency is given beside an inconclusive call; the fits are too rough. For some of these results: A note “side channel” means that the fit belongs to a control or component signal, not to the main read-out. Active and inactive are the calls of the source. Unless noted, the call rests on the fitted dose curve.
# Legend:
# [1] = biological target: Estrogen receptor (Homo sapiens) (UniProt P03372); assay: qHTS assay for small molecule antagonists of estrogen receptor alpha signaling (AID 588513; active means well fitted curve in the direction sought with a large enough effect in the signal ratio, with a control signal flat, not every such curve was filed as active; inconclusive means small, poorly fitted or top-dose-only effect, or effect the other way, or a change in a side signal; inactive means no such curve, though single readings can be large or run the other way; the % refers to the signal ratio; further: potency means the concentration at half of the fitted maximal effect; on activity, negative = inhibition: on the % scale 0 is the no-effect control and ±100 the full control effect); conditions: ER-alpha-UAS-bla HEK293, beta-lactamase ratio, antagonist mode; activity, negative = inhibition: at 76.9 µM (top of the series) unless noted
# Method in brief: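 Antagonist-mode qHTS in ER-alpha-UAS-bla HEK 293 cells: compound titration, 0.5nM estradiol for 18 h, CCF4 fluorescence, Hill-derived IC50.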
# [2] = biological target: Peroxisome proliferator-activated receptor delta (Homo sapiens) (UniProt Q03181); assay: qHTS assay for small molecule agonists of peroxisome proliferator-activated receptor delta signaling (AID 588534); conditions: HEK293T PPARdelta-UAS-bla, beta-lactamase ratio, 18 h; activation: at 76.7 µM (top of the series) unless noted; further: potency means the concentration at half of the fitted maximal effect;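 on activation: 0% = DMSO basal wells and 100% = positive control agonist at 10 µM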
# Method in brief: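 Agonist-mode qHTS; reporter cells, 5 hrs 37 C pre-incubation; compound titration, 18 hrs 37 C; CCF4 dye, 2 hrs RT; fluorescence read. EC50/efficacy via Hill fit.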
# [3] = biological target: Peroxisome proliferator-activated receptor delta (Homo sapiens) (UniProt Q03181); assay: qHTS assay for small molecule antagonists of peroxisome proliferator-activated receptor delta signaling (AID 588535; active means well fitted inhibition curve with a large enough effect in the signal ratio, with a control signal flat, not every such curve was filed as active; inconclusive means small, poorly fitted or top-dose-only effect, or effect the other way, or a change in a side signal; inactive means no such curve, though single readings can be large or run the other way; the % refers to the signal ratio); conditions: HEK293T PPARd-UAS-bla, beta-lactamase FRET ratio, 18 h; activity change, negative = inhibition: at 76.7 µM (top of the series) unless noted
# Method in brief: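 Inhibition of PPAR-delta response element-driven beta-lactamase expression is measured in HEK293T cells exposed to a compound titration series for 18 hrs at 37 C. Half-maximal inhibition comes from Hill equation fitting.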
# [4] = biological target: Retinoic acid receptor RXR-alpha (Homo sapiens) (UniProt P19793); assay: qHTS assay for small molecule agonists of retinoid X receptor alpha signaling (AID 588544); conditions: HEK293T RXRa-UAS-bla, beta-lactamase reporter, 18 h; activation: at 76.7 µM (top of the series); further: potency means the concentration at half of the fitted maximal effect;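 on activation: 0% = DMSO basal wells and 100% = reference agonist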
# [5] = biological target: Thyroid hormone receptor beta (Homo sapiens) (UniProt P10828); assay: qHTS assay for small molecule agonists of thyroid hormone receptor beta signaling (AID 588545); conditions: TR-UAS-bla GripTite HEK 293, beta-lactamase ratio, agonist mode, 18 h; activation: at 76.7 µM, percent of T3 response, DMSO as zero; further: potency means the concentration at half of the fitted maximal effect
# Method in brief: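 Agonist-mode beta-lactamase reporter assay, HEK 293 cells, 2% charcoal/dextran FBS; cells plated 4 hrs, compound 18 hrs at 37 C, CCF4 2 hrs RT. Normalized to 10 nM T3 (100%) and DMSO (0%); Hill fit gives EC50, efficacy.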
# [6] = biological target: Thyroid hormone receptor beta (Homo sapiens) (UniProt P10828); assay: qHTS assay for small molecule antagonists of thyroid hormone receptor beta signaling (AID 588547; active means well fitted inhibition curve with a large enough effect in the signal ratio, with a control signal flat, not every such curve was filed as active; inconclusive means small, poorly fitted or top-dose-only effect, or effect the other way, or a change in a side signal; the % refers to the signal ratio; further: potency means the concentration at half of the fitted maximal effect;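 on activity change % (negative = inhibition): cells stimulated with 0.4 nM T3 agonist during compound exposure; on the % scale 0 is the no-effect control and ±100 the full control effect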); conditions: TR-UAS-bla HEK293, beta-lactamase ratio, antagonist mode, 18 h
# Method in brief: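 TR-UAS-bla GripTite HEK293 cells in 2% charcoal/dextran FBS medium were preincubated 4 h at 37 C, given compound (0.59 nM to 92 uM) plus 0.4 nM T3 (final) for 18 h, then CCF4 for 2 h at RT; Hill fit gave IC50.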
# [7] = qHTS assay for small molecule agonists of the antioxidant response element (ARE) signaling pathway measured by Nrf2-dependant transcriptional activity (AID 720636; active means well fitted curve in the direction sought with a large enough effect in the repeat runs; inconclusive means weak or mixed curves; inactive means no such curve, though single readings can be large; an effect the other way counts as inactive or inconclusive; further: potency means the concentration at half of the fitted maximal effect)
# Method in brief: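 We exposed ARE-luc HepG2 cells, seeded in assay medium with 1% dialyzed FBS and allowed 6 hr to adhere, to test compounds overnight (16 hr, 37 C) before measuring luciferase with ONE-Glo.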
# [8] = qHTS assay for small molecule agonists of the antioxidant response element (ARE) signaling pathway (AID 651741; active means well fitted activation curve with a large enough effect in the signal ratio; inconclusive means small, poorly fitted or top-dose-only effect, or effect the other way, or a change in a side signal; the % refers to the signal ratio; further: potency means the concentration at half of the fitted maximal effect; on activation: % of control where 0% means no effect); conditions: HepG2 ARE-bla reporter, beta-lactamase FRET ratio, 16 h; activation: at 96 µM (top of the series) unless noted
# Method in brief: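 Reporter: beta-lactamase under ARE, stably in HepG2. Exposure: 16 h, 37 C, compounds delivered in DMSO by pin tool after 5 h cell preincubation. Readout: FRET substrate fluorescence after 2 h at RT.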
# [9] = Cell Viability - LYMP2-001 (AID 921; active means well fitted curve in the direction sought with a large enough effect; inconclusive means small, poorly fitted or top-dose-only effect, or another doubt; inactive means no such curve, though single readings can be large; an effect the other way counts as inactive or inconclusive;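 further: potency means the concentration at half of the fitted maximal effect; cells exposed to compound for 24 h at 37 °C; nearly all actives have a fitted effect of over 70% in size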); conditions: LYMP2-001 lymphoblastoid cell viability; activity change, negative = cytotoxic: at 92.2 µM (top of the series)
# Method in brief: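 A lymphoblastoid cell line of human origin was treated with library compounds across a concentration series for 24 hours, and viable cell number was estimated from ATP-driven luciferase light output. Hill modeling gave AC50.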
# [10] = Cell Viability - LYMP2-019 (AID 973; active means well fitted curve in the direction sought with a large enough effect; inconclusive means small, poorly fitted or top-dose-only effect, or another doubt; inactive means no such curve, though single readings can be large; an effect the other way counts as inactive or inconclusive;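 further: potency means the concentration at half of the fitted maximal effect; cells exposed to compound for 24 h at 37 °C; nearly all actives have a fitted effect of over 55% in size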)
# Method in brief: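 Cytotoxicity is scored as a concentration-dependent drop in cellular ATP after cells (2500/well) receive compound for 24 hr at 37 C. Tetraoctylammonium bromide serves as positive control.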
# [11] = Cell Viability - LYMP2-010 (AID 981; active means well fitted curve in the direction sought with a large enough effect; inconclusive means small, poorly fitted or top-dose-only effect, or another doubt; inactive means no such curve, though single readings can be large; an effect the other way counts as inactive or inconclusive;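 further: potency means the concentration at half of the fitted maximal effect; cells exposed to compound for 24 hours at 37 °C; nearly all actives have a fitted effect of over 55% in size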)
# Method in brief: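 Steps: seed 2500 LYMP2-010 cells per well; incubate 5 hr at 37 C; add compound; incubate 24 hr at 37 C; add CellTiter-Glo, wait 30 min at room temperature; read luminescence. Concentration-response fitted to Hill equation for AC50.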
# [12] = Cell Viability - LYMP2-012 (AID 982; active means well fitted curve in the direction sought with a large enough effect; inconclusive means small, poorly fitted or top-dose-only effect, or another doubt; inactive means no such curve, though single readings can be large; an effect the other way counts as inactive or inconclusive;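 further: cellular ATP by luciferase luminescence where a drop means cytotoxicity; potency means the concentration at half of the fitted maximal effect; cells exposed to compound for one day before reading; nearly all actives have a fitted effect of over 55% in size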); conditions: LYMP2-012 lymphoblastoid cell viability qHTS; activity change, negative = cytotoxicity: at 92.2 µM (top of the series)
# [13] = Cell Viability - LYMP2-020 (AID 986; active means well fitted curve in the direction sought with a large enough effect; inconclusive means small, poorly fitted or top-dose-only effect, or another doubt; inactive means no such curve, though single readings can be large; an effect the other way counts as inactive or inconclusive;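 further: cells exposed to compound for 24 h at 37 °C; plate controls were DMSO only for no effect and tetraoctylammonium bromide at 92 µM for full effect; nearly all actives have a fitted effect of over 55% in size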); conditions: activity change, negative = viability loss: at 92.2 µM (top of the series)
# Method in brief: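 Seed 2500 cells per well and incubate 5 hr at 37 C. Add compounds at a concentration series and incubate 24 hr at 37 C. Add CellTiter-Glo, wait 30 min at RT, read luminescence, and fit a Hill curve for AC50.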
# [14] = Cell Viability - LYMP2-022 (AID 987; active means well fitted curve in the direction sought with a large enough effect; inconclusive means small, poorly fitted or top-dose-only effect, or another doubt; inactive means no such curve, though single readings can be large; an effect the other way counts as inactive or inconclusive)
# Method in brief: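 Cells were seeded at 2500 per well, rested 5 hr at 37 C, and treated with titrated compounds for 24 hr at 37 C. Cellular ATP was then quantified by luciferase luminescence, and AC50 values were derived from Hill-modelled concentration-response curves.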
# [15] = Cell Viability - LYMP2-024 (AID 988; active means well fitted curve in the direction sought with a large enough effect; inconclusive means small, poorly fitted or top-dose-only effect, or another doubt; inactive means no such curve, though single readings can be large; an effect the other way counts as inactive or inconclusive; further: potency means the concentration at half of the fitted maximal effect; nearly all actives have a fitted effect of over 60% in size)
# Method in brief: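 qHTS cytotoxicity, human lymphoblastoid line, complete medium; 24 h cpd treatment, 37 C; CellTiter-Glo ATP luminescence readout; tetraoctylammonium bromide positive control; AC50 via Hill fit.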
# [16] = biological target: Peroxisome proliferator-activated receptor gamma (Homo sapiens) (UniProt P37231); assay: qHTS assay for small molecule antagonists of peroxisome proliferator-activated receptor gamma signaling (AID 588537; active means well fitted inhibition curve with a large enough effect in the signal ratio, with a control signal flat, not every such curve was filed as active; inconclusive means small, poorly fitted or top-dose-only effect, or effect the other way, or a change in a side signal; the % refers to the signal ratio;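 further: reporter cells co-stimulated with 50 nM rosiglitazone agonist during compound treatment; % of control where 0% means no effect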); conditions: HEK293 PPARg-UAS-bla, beta-lactamase ratio, antagonist mode; activity, negative = inhibition: at 76.8 µM (top of the series) unless noted
# Method in brief: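 Compounds are tested as concentration series for inhibition of rosiglitazone-driven (50 nM) reporter expression in GeneBLAzer PPAR-gamma-UAS-bla HEK293 cells. After 16 h at 37 C, CCF4 substrate is added for 2 h at room temperature and blue/green fluorescence is measured.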
# [17] = qHTS assay for small molecule disruptors of the mitochondrial membrane potential - 1 hr assay (AID 651754); conditions: ratio change, negative = depolarisation: at 92.2 µM (top of the series); further: on the % scale 0 is the no-effect control and ±100 the full control effect; nearly all actives have a fitted effect of over 35% in size
# Method in brief: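 Loss of mitochondrial potential shifts the cationic dye from red mitochondrial aggregates to green cytoplasmic monomers. Cells (HepG2) are treated with compound for 1 hr before a 30 min dye incubation at 37C.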
# [18] = biological target: Tumor necrosis factor (Homo sapiens) (UniProt P01375); assay: qHTS assay to identify small molecules that stimulate Tumor Necrosis Factor-alpha (TNF-alpha) secretion (AID 651757; active means well fitted curve in the direction sought with a large enough effect in the signal ratio; inconclusive means small, poorly fitted or top-dose-only effect, or a change in a side signal; inactive means no such curve, though single readings can be large or run the other way; the % refers to the signal ratio; further: 0% is about no effect); conditions: Human cells, HTRF 665/615 ratio; activation (TNF-alpha secretion): at 92.2 µM (top of the series)
# Method in brief: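 Human monocytic THP-1 cells are plated, treated with compound and held at 37 C for 17 hrs. Labeled anti-TNF-alpha antibody mixture is then added; after 3 hr at room temperature, TR-FRET signal reports secreted TNF-alpha.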
# [19] = qHTS assay to identify small molecules that stimulate interleukin-8 (IL-8) secretion (AID 651758; active means well fitted activation curve with a large enough effect in the signal ratio; inconclusive means small, poorly fitted or top-dose-only effect, or effect the other way, or a change in a side signal; the % refers to the signal ratio; further: 0% is about no effect); conditions: HTRF ratio (665/615); activation: at 92.2 µM (top of the series)
# Method in brief: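 Quantitative HTS in THP-1 monocytic cells at 2000 cells per well, with 16 hrs compound incubation at 37 C. IL-8 in the medium was then quantified by HTRF immunoassay, read after 1-3 hrs at room temperature.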
# [20] = biological target: Retinoic acid receptor RXR-alpha (Homo sapiens) (UniProt P19793); assay: qHTS assay for small molecule antagonists of retinoid X receptor alpha signaling (AID 588546; active means well fitted inhibition curve with a large enough effect in the signal ratio, with a control signal flat, not every such curve was filed as active; inconclusive means small, poorly fitted or top-dose-only effect, or effect the other way, or a change in a side signal; inactive means no such curve, though single readings can be large or run the other way; the % refers to the signal ratio;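 further: cells stimulated with 9-cis-retinoic acid as agonist; on the % scale 0 is the no-effect control and ±100 the full control effect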); conditions: HEK293T RXRa-UAS-bla, beta-lactamase ratio, antagonist mode
# Method in brief: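 Beta-lactamase reporter inhibition, read as CCF4 fluorescence ratio (ex 405, em 460/530 nm) after 2 h at RT. HEK293T UAS-bla cells, 2500/well, were stimulated with 9-cis-RA at 500 or 100 nM final alongside test compound for 18 h at 37 C.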
# [21] = biological target: Glucocorticoid receptor (Homo sapiens) (UniProt P04150); assay: qHTS assay for small molecule agonists of glucocorticoid receptor signaling (AID 588532; active means well fitted curve in the direction sought with a large enough effect in the signal ratio, with a control signal flat; inconclusive means small, poorly fitted or top-dose-only effect, or a change in a side signal; inactive means no such curve, though single readings can be large or run the other way; the % refers to the signal ratio; further: potency means the concentration at half of the fitted maximal effect); conditions: HeLa MMTV-bla, beta-lactamase ratio, agonist, 18 h; activation: stronger effect = higher value, percent of dexamethasone control, DMSO zero
# Method in brief: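 MMTV-bla HeLa, beta-lactamase reporter; medium with 1% charcoal/dextran-stripped FBS; cpds up to 92 uM, 18 h, 37 C; CCF4 readout 460/530 nm; Hill fit → EC50, efficacy vs 0.1 uM dexamethasone = 100%.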
# [22] = biological target: Peroxisome proliferator-activated receptor gamma (Homo sapiens) (UniProt P37231); assay: qHTS assay for small molecule agonists of peroxisome proliferator-activated receptor gamma signaling (AID 588536; active means well fitted curve in the direction sought with a large enough effect in the signal ratio, with a control signal flat, not every such curve was filed as active; inconclusive means small, poorly fitted or top-dose-only effect, or effect the other way, or a change in a side signal; inactive means no such curve, though single readings can be large or run the other way; the % refers to the signal ratio;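 further: 0% = DMSO basal wells and 100% = rosiglitazone at 2 µM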); conditions: HEK293 PPARg-UAS-bla, beta-lactamase ratio, 16 h; activation: at 76.7 µM (top of the series), percent of rosiglitazone response, DMSO as zero
# Method in brief: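 Cells were plated and held 6–6.5 h at 37 C, then compounds were added as a titration series. After a further 16 h, CCF4 dye was loaded for 2 h at room temperature and emission at 460/530 nm recorded.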
# [23] = biological target: Estrogen receptor (Homo sapiens) (UniProt P03372); assay: qHTS assay for small molecule agonists of estrogen receptor alpha signaling (AID 588514); conditions: ER-alpha-UAS-bla HEK293, beta-lactamase ratio, 18 h, percent of full estradiol response;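 further: 0% = vehicle only and 100% = reference agonist; nearly all actives have a fitted effect of over 70% in size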
# Method in brief: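 Efficacy is expressed against 20 nM 17-beta-estradiol (100%) and DMSO basal (0%); EC50 from Hill equation. Assay: beta-lactamase reporter in ER-alpha-UAS-bla HEK 293 cells, 18 h compound incubation, CCF4 detection.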
# [24] = biological target: Vitamin D3 receptor (Homo sapiens) (UniProt P11473); assay: qHTS assay for small molecule agonists of vitamin D receptor signaling (AID 588543); conditions: HEK293T VDR-UAS-bla, beta-lactamase ratio, 16 h; activation: at 76.8 µM (top of the series);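 further: 0% = DMSO basal and 100% = reference agonist control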
# Method in brief: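 Measured: β-lactamase reporter activity (CCF4, 405 nm excitation, 460/530 nm emission) in HEK293T VDR-UAS-bla cells after 16 h compound exposure at 37 °C. Normalization against 50 nM 1α,25-dihydroxyvitamin D3 and DMSO; Hill-fit EC50.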
# Tags describe the fitted curve by direction and shape or compound fluorescence and quenching.
# UniProt P03372, sequence (P03372 whole entry, looked up): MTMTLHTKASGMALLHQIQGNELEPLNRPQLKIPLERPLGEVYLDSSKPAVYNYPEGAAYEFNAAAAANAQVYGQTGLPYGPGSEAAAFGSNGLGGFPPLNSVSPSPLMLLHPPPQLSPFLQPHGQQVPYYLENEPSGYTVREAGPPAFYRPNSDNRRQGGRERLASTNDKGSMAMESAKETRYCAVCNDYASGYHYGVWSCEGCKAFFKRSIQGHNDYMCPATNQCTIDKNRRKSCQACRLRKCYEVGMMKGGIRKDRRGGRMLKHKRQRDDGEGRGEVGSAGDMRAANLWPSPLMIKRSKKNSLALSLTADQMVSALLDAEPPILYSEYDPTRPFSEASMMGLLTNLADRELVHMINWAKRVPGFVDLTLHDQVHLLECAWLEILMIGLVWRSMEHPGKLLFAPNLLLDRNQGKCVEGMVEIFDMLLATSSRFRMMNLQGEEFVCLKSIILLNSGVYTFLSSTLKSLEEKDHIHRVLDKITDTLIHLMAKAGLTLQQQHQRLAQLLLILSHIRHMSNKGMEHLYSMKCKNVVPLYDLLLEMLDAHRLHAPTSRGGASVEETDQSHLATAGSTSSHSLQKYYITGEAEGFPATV
# UniProt P19793, sequence (P19793 whole entry, looked up): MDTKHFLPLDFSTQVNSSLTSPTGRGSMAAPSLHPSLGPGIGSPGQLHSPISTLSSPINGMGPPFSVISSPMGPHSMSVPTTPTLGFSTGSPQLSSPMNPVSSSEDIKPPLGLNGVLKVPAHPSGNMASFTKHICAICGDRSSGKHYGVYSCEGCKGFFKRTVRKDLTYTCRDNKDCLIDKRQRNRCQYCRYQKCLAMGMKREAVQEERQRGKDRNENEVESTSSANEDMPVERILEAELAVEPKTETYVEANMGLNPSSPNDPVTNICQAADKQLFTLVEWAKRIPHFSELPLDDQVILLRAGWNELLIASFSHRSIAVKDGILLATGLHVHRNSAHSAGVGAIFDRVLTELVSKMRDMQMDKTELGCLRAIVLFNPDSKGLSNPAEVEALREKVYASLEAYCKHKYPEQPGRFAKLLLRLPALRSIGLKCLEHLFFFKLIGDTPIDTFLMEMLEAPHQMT
# UniProt Q03181, sequence (Q03181 whole entry, looked up): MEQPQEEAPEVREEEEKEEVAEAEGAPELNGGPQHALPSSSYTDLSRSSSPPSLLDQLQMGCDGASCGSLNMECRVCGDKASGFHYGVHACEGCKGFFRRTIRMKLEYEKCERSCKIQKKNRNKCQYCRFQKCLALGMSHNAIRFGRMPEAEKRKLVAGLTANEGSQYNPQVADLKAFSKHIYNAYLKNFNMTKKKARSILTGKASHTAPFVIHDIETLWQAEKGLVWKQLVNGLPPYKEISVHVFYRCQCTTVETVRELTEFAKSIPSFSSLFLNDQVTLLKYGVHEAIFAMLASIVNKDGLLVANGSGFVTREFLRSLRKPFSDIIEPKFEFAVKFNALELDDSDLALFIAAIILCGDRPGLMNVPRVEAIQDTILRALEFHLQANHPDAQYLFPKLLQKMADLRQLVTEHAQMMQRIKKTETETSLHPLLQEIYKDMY
# UniProt P10828, sequence (P10828 whole entry, looked up): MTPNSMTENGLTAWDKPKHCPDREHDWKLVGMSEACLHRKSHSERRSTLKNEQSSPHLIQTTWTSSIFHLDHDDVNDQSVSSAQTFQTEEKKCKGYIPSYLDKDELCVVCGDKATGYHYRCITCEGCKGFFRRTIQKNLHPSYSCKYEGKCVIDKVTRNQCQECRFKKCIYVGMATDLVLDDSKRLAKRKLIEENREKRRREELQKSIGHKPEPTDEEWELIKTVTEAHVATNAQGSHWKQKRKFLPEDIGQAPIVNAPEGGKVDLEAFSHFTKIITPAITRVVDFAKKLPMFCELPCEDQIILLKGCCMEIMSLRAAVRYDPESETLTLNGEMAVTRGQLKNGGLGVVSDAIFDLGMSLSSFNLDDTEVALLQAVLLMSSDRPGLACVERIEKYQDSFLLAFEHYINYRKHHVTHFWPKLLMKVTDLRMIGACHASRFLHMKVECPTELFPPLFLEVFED
# UniProt P11473, sequence (P11473 whole entry, looked up): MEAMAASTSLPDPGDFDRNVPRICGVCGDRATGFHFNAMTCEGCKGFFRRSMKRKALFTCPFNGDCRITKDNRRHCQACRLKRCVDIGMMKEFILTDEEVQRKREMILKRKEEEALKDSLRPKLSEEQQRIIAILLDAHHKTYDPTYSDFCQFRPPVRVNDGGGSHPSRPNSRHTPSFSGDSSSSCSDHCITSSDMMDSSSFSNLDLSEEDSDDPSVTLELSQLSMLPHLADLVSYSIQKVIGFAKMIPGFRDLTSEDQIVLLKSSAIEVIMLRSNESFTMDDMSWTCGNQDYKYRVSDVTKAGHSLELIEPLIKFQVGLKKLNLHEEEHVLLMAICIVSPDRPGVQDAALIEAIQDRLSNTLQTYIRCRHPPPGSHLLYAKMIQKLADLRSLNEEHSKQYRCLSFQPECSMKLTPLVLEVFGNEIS
# UniProt P01375, sequence (P01375 whole entry, looked up): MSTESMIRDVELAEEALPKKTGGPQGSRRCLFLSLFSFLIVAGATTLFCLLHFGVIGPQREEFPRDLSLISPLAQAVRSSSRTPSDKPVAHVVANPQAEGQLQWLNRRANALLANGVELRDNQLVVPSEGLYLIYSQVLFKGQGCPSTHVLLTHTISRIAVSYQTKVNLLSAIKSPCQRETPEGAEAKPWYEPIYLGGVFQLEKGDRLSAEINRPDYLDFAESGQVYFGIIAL
smiles,measurement,setting,value
CCOC(=O)C(C)Oc1ccc(Oc2cnc3cc(Cl)ccc3n2)cc1 (centres undefined),Potency,[1],"inconclusive [side channel, rising, partial curve]"
same,Potency,[2],"inconclusive [side channel, rising, partial curve]"
same,"activity change, negative = inhibition",[3],inconclusive: -30.8%
same,Potency,[4],"inconclusive [side channel, rising, partial curve]"
same,Potency,[5],"inconclusive [side channel, rising, partial curve]"
same,Potency,[6],"inconclusive [fluorescent, side channel, partial curve]"
same,Potency,[7],"inconclusive [activator, partial curve, poor fit]"
OC1CCCCCCCCCCC1,Potency,[1],inactive
same,Potency,[3],inactive
same,Potency,[6],"inconclusive [side channel, falling, partial curve, poor fit]"
same,Potency,[8],inactive
c1ccc2cc3c(ccc4ccccc43)cc2c1,Potency,[1],inactive
same,Potency,[4],inactive
O=[N+]([O-])c1ccc(F)cc1F,Potency,[9],active: 50.1 µM
same,Potency,[10],"inconclusive [cytotoxic, single point]"
same,Potency,[11],"inconclusive [cytotoxic, single point]"
same,Potency,[12],"inconclusive [cytotoxic, single point]"
same,"activity change, negative = viability loss",[13],inconclusive: -43% [cytotoxic]
same,Potency,[14],"inconclusive [cytotoxic, single point]"
same,Potency,[15],"inconclusive [cytotoxic, single point]"
same,Potency,[1],inactive
same,Potency,[2],inactive
same,"activity, negative = inhibition",[16],inconclusive: 2.8%
same,Potency,[8],inactive
same,Potency,[17],inactive
same,Potency,[18],inactive
same,activation,[19],inconclusive: -4.5%
CC/C=C/CCCCCCCCCCOC(C)=O,"activity, negative = inhibition",[1],inconclusive: -18.2%
same,Potency,[16],inactive
same,activation,[5],inactive: -14.7%
same,max response,[20],inconclusive: -16.9%
same,Potency,[8],inactive
CN(C)Cc1cc(CN(C)C)c(O)c(CN(C)C)c1,"activity, negative = inhibition",[1],inconclusive: -20.7%
same,Potency,[21],"inconclusive [side channel, falling, full curve, poor fit]"
same,"activity, negative = inhibition",[16],inconclusive: -3%
same,Potency,[6],"inconclusive [cytotoxic, side channel, full curve, poor fit]"
same,Potency,[8],inactive
C[Si]1(C)O[Si](C)(C)O[Si](C)(C)O[Si](C)(C)O1,"activity, negative = inhibition",[1],inconclusive: -16.3%
same,activation,[22],inconclusive: 7.65%
same,Potency,[16],inactive
same,activation,[4],inconclusive: 39.3%
same,Potency,[8],inactive
Cc1c(N=C=O)cccc1N=C=O,activation,"[23]; activation: at 76.8 µM (top of the series), vehicle zero unless noted",inconclusive: 67%
same,activation,"[23]; at 76.8 µM (top of the series), vehicle zero",inactive: -0.226%
same,Potency,[16],inactive
same,Potency,[24],inactive
same,activity change % (negative = inhibition),[6],inactive: 2.21% and inactive: -0.0232%
same,Potency,[8],"inconclusive [activator, partial curve] and inactive"
same,activation,[19],inconclusive: -18.9%
